Test results from publication PMC4242493.
The list shows a part of the results. The list includes weakly bound sequences.

The sequences below were run against MaxL homodimer (UniProt P61244) (assay: universal protein-binding microarray (PBM)). Conditions: PBS-based mixture, 10 nM His-tagged protein dimer, 2% milk, 200 ng/uL BSA, 50 ng/uL salmon testes DNA, 0.02% TX-100; detection with Alexa 488 anti-His …; high values mean tight binding; most listed sequences are background and not binding sites; double strand, one strand shown.
Sequence of UniProt P61244 (P61244 whole entry): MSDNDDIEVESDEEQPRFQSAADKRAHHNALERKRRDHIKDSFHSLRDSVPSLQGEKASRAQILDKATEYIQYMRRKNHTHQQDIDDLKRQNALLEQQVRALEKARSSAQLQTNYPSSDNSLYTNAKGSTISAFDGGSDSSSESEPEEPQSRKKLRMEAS

Sequence | binding signal (normalized occupancy)
CGAGGGGA | 0.0726
CCCATGAG | 0.0921
AACTTTAA | 0.0679
GTTACAAC | 0.0748
CAAGACTC | 0.0699
AACGGCAG | 0.067
CACGGCGA | 0.0765
ATAGAGGA | 0.0732
ATCTGCGA | 0.078
CCTTCCTA | 0.0705
TCGCAGCA | 0.0711
CAGCGGGC | 0.0682
CCGAGTGC | 0.0748
GACGAAGA | 0.0677
CCATGGCG | 0.0768
GATAGTCC | 0.082
ACCCTAAT | 0.079
GTTCACAA | 0.0724
GCTGGTAC | 0.0712
AAAAACCG | 0.0752
AGAGAAAG | 0.0712
ATACCTAA | 0.078
AAGGCTTC | 0.0717
GCGAGCAC | 0.0768

Sequence | binding signal (normalized occupancy)
ACAGCGGG | 0.0697
GGTAACTA | 0.077
CAAGGATG | 0.0729
CTTATCAA | 0.0755
CCGTACTC | 0.0675
GATATCCC | 0.0803
AGCTCCGC | 0.0681
AAACGTCT | 0.0704
CGAGTTGA | 0.0727
CTATTGTC | 0.079
AGCGCTAC | 0.0701
ACCGATCT | 0.0743
ACCGATAG | 0.0767
ATTTTAAC | 0.0737
GGTCAAAC | 0.0731
ACTATTGA | 0.0748
AAATACCC | 0.0789
AATGTTTA | 0.0748
GGCGCCAA | 0.066
CGTGCGGA | 0.0851
GCATGGAA | 0.0932
AGAAGCTC | 0.0732
ACGGACTA | 0.0757
ACCTAAGT | 0.0745

Sequence | binding signal (normalized occupancy)
CGCTTCGA | 0.0673
GTTCTATA | 0.0795
AATACCGT | 0.0735
ACCCTCAC | 0.0801
TATCATCA | 0.0814
CAGTACTG | 0.074
AATTGCAT | 0.0746
CCCTGCGA | 0.0717
CTAATAAC | 0.0826
GATGGGCC | 0.071
GGACGGAC | 0.0693
AAGATATT | 0.0751
ACAAGTTA | 0.0748
AAACCTTC | 0.0692
CTTATTAA | 0.0743
AGGAGAAC | 0.0777
AAACTTTA | 0.0719
ATGTCCTA | 0.0783
CCCAGCAA | 0.0747
AAGGGCAA | 0.0728
AAAAGGGA | 0.0725
GGTAGTAC | 0.0788
GGACGACC | 0.0682
CCGCTGTA | 0.0735

Sequence | binding signal (normalized occupancy)
AATTGGAT | 0.0727
CACAGCTG | 0.0757
ATGGTCAA | 0.0825
ACGGCTCT | 0.069
GGCGTAGA | 0.0753
ACGAATCA | 0.0778
ATGCTGCA | 0.0899
ACTCATGA | 0.0903
CAAGGTAA | 0.0729
CTCTCCGA | 0.0657
AGCCCGGC | 0.0634
CTTCCGTC | 0.0725
GCGCTCCC | 0.0674
CCCAAATA | 0.0756
CACTGCAC | 0.0816
ACATAAAA | 0.0779
AGTAGTCA | 0.0744
GCTGGCAC | 0.0743
AAAGGTCT | 0.0727
CAGTCGGG | 0.0726
AAGTTCAC | 0.0713
ACGGCGAG | 0.075
